In PMC6212790:
This is one part of the list. At the low end of the ranking the order means little.

Biological target: T1, GST-Rok (full length) (UniProt O34857)
T1 sequence: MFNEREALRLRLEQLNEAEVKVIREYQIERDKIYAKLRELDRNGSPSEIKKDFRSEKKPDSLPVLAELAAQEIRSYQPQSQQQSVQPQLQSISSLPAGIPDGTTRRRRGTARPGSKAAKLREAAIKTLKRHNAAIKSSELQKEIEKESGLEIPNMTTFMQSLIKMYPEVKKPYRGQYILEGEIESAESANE
Assay: protein binding microarray;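 further: rank score from −0.5 (least bound) to 0.5 (best bound)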
Conditions: Rok is a gene silencer of Bacillus subtilis; high values mean tight binding; most listed sequences are background and not binding sites; double strand, one strand shown

Row | Sequence | binding signal [E-score]
1 | ACGAGCCC | -0.259
2 | TCTCAGAA | 0.127
3 | ATGTGGCC | -0.141
4 | ACACTACC | 0.135
5 | GGGAACTA | 0.0241
6 | ATGTATAA | 0.385
7 | CCTACGTA | -0.155
8 | ACGCATTG | -0.0318
9 | GATCATAC | 0.197
10 | ACATCCAT | 0.255
11 | ATAGATCA | 0.16
12 | ATGTTCAA | 0.0892
13 | ATTAGGGC | -0.117
14 | AGATCTAT | 0.312
15 | CAGTACGG | -0.115
16 | AGTAGCTA | 0.386
17 | CCGTTGTA | 0.0748
18 | AGAGCCCG | -0.189
19 | CGAAGCAG | -0.266
20 | GGATTATA | 0.0423
21 | ATAATGTC | 0.175
22 | GATCGGAC | -0.12
23 | ACCCTCTC | -0.352
24 | CAATGCCG | -0.0742
25 | CACTGCTG | -0.0421

Row | Sequence | binding signal [E-score]
26 | CAGAGAGG | -0.192
27 | AAACACGG | -0.0353
28 | ACAAGTCT | -0.123
29 | ATAAAGAG | 0.0318
30 | GATTATCA | 0.183
31 | AGTCGCAC | -0.0838
32 | AGGTAAGG | -0.137
33 | ATTCTAAA | 0.206
34 | CCAGCTGG | -0.0435
35 | AGGCAAGC | -0.186
36 | CCCGCGAA | -0.0606
37 | GACGGACA | -0.193
38 | ACGGTGCG | -0.221
39 | CAACTGCC | -0.222
40 | GTACGCCA | -0.0467
41 | AACCGAAC | 0.13
42 | AGCAACAC | 0.17
43 | ACACGTCA | 0.0265
44 | CCCGACCG | -0.311
45 | ATACATGC | 0.224
46 | ATTTGTGC | -0.02
47 | ATGCTCCA | 0.0336
48 | AGGGATCC | -0.341
49 | CGACCTGC | -0.203
50 | AAACAGAC | 0.0378

Row | Sequence | binding signal [E-score]
51 | CCGAGCCC | -0.402
52 | AGTGTGAT | -0.0908
53 | AGGCACAT | -0.0309
54 | ATACAAGG | -0.0167
55 | CTACATGA | 0.347
56 | AAGGCAGT | 0.108
57 | GCCGCTAC | 0.121
58 | ATTGATCC | 0.00268
59 | CATCTTTA | -0.129
60 | CTCTAGTC | 0.146
61 | GATAGCGC | 0.224
62 | GAAAACAC | 0.0542
63 | TATCCACA | 0.0289
64 | ATTATTTA | 0.406
65 | GAACTGGC | -0.104
66 | ACGTCGGA | 1.16e-05
67 | GTAACTAA | 0.304
68 | ATGTTAGC | 0.11
69 | ATCTCCTG | -0.147
70 | CGGGCCAC | -0.203
71 | TTATCGAA | 0.145
72 | GACTGCGA | -0.158
73 | ACAGGATA | 0.151
74 | GGAACTGA | -0.0362
75 | CACAGATA | 0.217

Row | Sequence | binding signal [E-score]
76 | CACGGCCA | -0.0528
77 | TAGCCTAA | -0.0202
78 | AAAGCTAA | 0.0948
79 | AGAAAAAA | 0.0774
80 | GTGTACCA | -0.0444
81 | ACGAGGGG | -0.276
82 | CGCGGACG | -0.152
83 | GCTTGGCC | -0.395
84 | CAAGTGAG | -0.171
85 | ATTGACAA | 0.0319
86 | ACCTACGA | 0.202
87 | CTCCTAAG | -0.05
88 | AGCTCGAC | -0.122
89 | AAGTGTAC | 0.126
90 | ATGGGGGG | -0.466
91 | CAATGCTA | 0.175
92 | CACCGAAG | -0.257
93 | GAATCGCA | -0.126
94 | GTAATGGA | 0.266
95 | ACTCATTA | -0.0443
96 | ATAAAATC | 0.295
97 | AATAATGA | 0.0976
98 | AGACTTAT | 0.0949
99 | GGCTCAAA | -0.0922
100 | CGAAAAAA | -0.0641

Row | Sequence | binding signal [E-score]
101 | ATTGTCTA | 0.136
102 | AGACGCAC | -0.237
103 | ACATTGGT | 0.186
104 | TAGGCCGA | -0.156
105 | GAGAGTGC | -0.163
106 | CGACTCCC | -0.318
107 | CGCACATA | 0.136
108 | ATTGATGA | 0.00641
109 | AAGAACTT | -0.0219
110 | CTGGCGGC | -0.218
111 | CTGATGGC | -0.154
112 | CTTAAGTC | -0.158
113 | AGCGTCTG | 0.0355
114 | ATGGCCCG | -0.197
115 | CCCTTGAA | -0.232
116 | AATTGGGA | -0.0694
117 | ATCGGCCG | -0.0783
118 | GTCACAGA | -0.117
119 | AGTTTTAT | 0.29
120 | TAAGTCGA | 0.0375
121 | CCTCGACC | -0.301
122 | CTACACAC | -0.00896
123 | GAGCAGCA | -0.191
124 | CGTTCACA | -0.0773
125 | GGGAACAA | -0.0801

Row | Sequence | binding signal [E-score]
126 | CGATCTGA | 0.0905
127 | ACAAAAGA | -0.0301
128 | AGTCGAAC | -0.0148
129 | ATGGGAGA | -0.0104
130 | CTGTAGGC | -0.0493
131 | ATGCCCCA | -0.34
132 | AGACTGTA | 0.117
133 | GAGGGAAC | -0.167
134 | TATAAGAA | 0.184
135 | AGCATCAG | -0.0321
136 | ACTATCAT | 0.29
137 | CCAGATAA | 0.0351
138 | AGCTTAGC | 0.0674
139 | AGCATCAA | -0.0955
140 | TACTCGCA | -0.0973
141 | CAGCTCGC | -0.191
142 | AAACACGA | 0.168
143 | GGTCTTAC | -0.12
144 | TCAAAGAA | 0.0682
145 | CATCATGG | -0.0446
146 | ACAGAGTG | -0.0192
147 | CGGCCGTA | -0.0236
148 | GCTTTACC | 0.0377
149 | AGCCATGC | -0.176
150 | TGCCAGCA | 0.156

Row | Sequence | binding signal [E-score]
151 | AGCAGAAG | -0.0224
152 | GACACACC | -0.201
153 | GACGCCTC | -0.276
154 | ATAAATTA | 0.347
155 | GGGCCCGA | -0.25
156 | ATTCCCGA | -0.0158
157 | CGGGGAAC | -0.172
158 | CGGGCTTC | -0.122
159 | ACCTGATG | -0.00581
160 | GCTGTGTA | 0.137
161 | GGCCGGAC | -0.269
162 | CAGGCTGA | -0.0829
163 | ATTCAACA | 0.0903
164 | AATGCACG | -0.0533
165 | GCCATGTA | 0.135
166 | AAAATCGT | 0.131
167 | CATACTAA | 0.125
168 | CAACAGCG | -0.0866
169 | CGTTGATC | 0.138
170 | ACCACGTA | -0.0124
171 | AAGCACCG | -0.263
172 | ACACTCGA | -0.0663
